Tested on: Salmonella enterica MTAN
Conditions: substrate 2AMTA

## 2-amino-5′-methylthioadenosine [2AMTA]
  Km: 8 ± 1.6 µM
  kcat: 1.6 ± 0.18 s⁻¹
